Measured values reported in US20090143279A1 (priority 2007, published 2009).
Read-outs that look alike come from different tables or passages of the source.

System: cellular ATP levels
Conditions: for ATP (composite Z-score): normalized score vs mock-treated (DMSO) wells
[1] = normalized composite Z-score vs mock-treated (DMSO) wells, Conc 20 μM
[2] = composite Z-score vs DMSO wells, Conc 20 μM
[3] = composite Z-score vs mock-treated (DMSO) wells, Conc 20 μM
[4] = composite Z-score vs DMSO, Conc 20 μM
[5] = 20 μM, composite Z-score vs DMSO

With `COc1c(-c2ccccc2)oc2c(OC)cccc2c1=O` [3,8-dimethoxyflavone] the ATP [1] was 0.242.
`CC(C)n1c(/C=C/C(O)CC(O)CC(=O)O)c(-c2ccc(F)cc2)c2ccccc21` (stereo not drawn) [fluvastatin, reference compound] was tested, and the “cellular ATP levels” value (screen, FIG. 9a, in words) was “strong decreases”.
`CO[C@H]1C[C@H](O[C@H]2CC[C@]3(C=O)[C@H]4CC[C@]5(C)[C@@H](C6=CC(=O)OC6)CC[C@]5(O)[C@@H]4CC[C@]3(O)C2)O[C@H](C)[C@H]1O` [cymarin] was tested, and the “ATP (composite Z-score)” value (Conc 20 μM) was −0.332.
Molecule `C[N+]1(C)CCCC(OC(=O)C(O)(c2ccccc2)c2ccccc2)C1` (stereo not drawn) [mepenzolate] has an ATP [2] of 0.633.
`CC(=O)Oc1ccccc1C(=O)Oc1ccccc1C(=O)O` [acetylsalicylsalicylic acid] was tested, and the “ATP (composite Z-score)” value (Conc 13.32 μM) was 1.663.
For `CC1(C)OC(=O)C=CC2(C)C1CC(O)C1(C)C2CCC2(C)C(c3ccoc3)OC(=O)C3OC321` (stereo not drawn) [obacunol], the ATP [3] was 1.116.
Molecule `NNC(=O)c1ccncc1.Nc1ccc(C(=O)O)c(O)c1` [pasiniazid] has an ATP [4] of 1.328.
`CCCN(CCC)C(=O)C(CCC(=O)O)NC(=O)c1ccccc1` (stereo not drawn) [proglumide] showed an ATP [5] of 1.059.
With `COC(=O)[C@]1(C)CC[C@]2(C)CC[C@]3(C)C4=CC=C5C(=CC(=O)C(O)=C5C)[C@]4(C)CC[C@@]3(C)[C@@H]2C1` [pristimerin] the ATP [4] was −8.234.
Work on `COc1ccccc1-c1cc(=O)c2c(OC)cccc2o1` [5,2′-dimethoxyflavone] yielded an ATP [1] of 1.331.
With `COc1cc2c(cc1-c1coc3c4c(c(OC)cc3c1=O)OC(C)(C)C=C4)OCO2` [ichthynone, reference compound] the “ATP (composite Z-score)” value (Conc 20 μM) was −0.541.
With `C=C1[C@@H]2CC[C@@]3(C)[C@H](c4ccoc4)OC(=O)C[C@]13O[C@H]1CC(=O)C(C)(C)[C@H](CC(=O)OC)[C@]12C` [angolensic acid, methyl ester] the ATP [3] was −0.097.
`CCOC(=O)[N-]c1cn(N2CCOCC2)n[o+]1` [molsidomine] showed an ATP [2] of −0.269.
For `Cn1c(=O)[nH]c(=O)c2[nH]cnc21` [3-methylxanthine], the ATP [4] was 0.704.
`CO/N=C(\C(=O)N[C@@H]1C(=O)N2C(C(=O)O)=C(CSc3nc(=O)c(=O)[nH]n3C)CS[C@H]12)c1csc(N)n1` [ceftriaxone] was tested, and the ATP was −0.735.
Work on `OC[C@H]1O[C@@H](n2cnc3c(NCc4ccco4)ncnc32)[C@H](O)[C@@H]1O` [kinetin riboside] yielded an ATP [4] of −2.070.
For `COc1ccc(/C=C/c2cc(O)cc(O)c2)cc1` [resveratrol 4′-methyl ether], the ATP [3] was −0.649.
With `Cc1cc(O)c(C)c(O)c1C(=O)O` [3-methylorsellinic acid] the ATP [4] was 1.932.
`COc1cc2c(cc1OC)[C@@H]1C(=O)c3ccc4c(c3O[C@@H]1CO2)C=CC(C)(C)O4` [deguelin(−), reference compound] showed an ATP (Table 4, C2C12 myotubes, 48 h, composite Z-score) of −5.123.
`N#Cc1c(Cl)c(Cl)c(Cl)c(C#N)c1Cl` [tetrachloroisophthalonitrile] was tested, and the “ATP (composite Z-score)” value (Conc 20 μM) was −8.366.
`COC1=C[C@@H](C)[C@@H]2C[C@H]3OC(=O)C[C@H]4C(C)=C(OC)C(=O)[C@H]([C@@]2(C)C1=O)[C@@]34C` [quassin, reference compound] gave an ATP [5] of 0.866.
`CC(=O)O[C@H]1CC[C@]2(C)[C@H]3CC[C@@]4(C)[C@H](c5ccoc5)OC(=O)[C@H]5O[C@]54[C@]3(C)[C@H](OC(C)=O)C[C@H]2C1(C)C` [3beta-acetoxydeoxodihydrogedunin] gave an ATP [3] of 0.077.
`COc1ccc(-c2c(OC)c3c(OC)c4c(cc3oc2=O)OC(C)(C)C=C4)cc1` [robustic acid methyl ether, reference compound] was tested, and the “ATP (composite Z-score)” value (Conc 20 μM) was −0.589.
In the case of dimenhydrinate, the ATP [4] is reported as −0.597.
`COc1cccc(-c2cc(=O)c3cc(OC)ccc3o2)c1` [6,3′-dimethoxyflavone] showed an ATP [3] of −2.332.
`O=C(O)CF` [sodium fluoroacetate] was tested, and the ATP [4] was 0.006.
With `COc1ccc2c(c1)C1(C)CCC(=O)CC1CC2` (stereo not drawn) the “ATP (composite Z-score)” value (Conc 20 μM) was −0.133.
Work on `O=[N+]([O-])NC1=NCCN1Cc1ccc(Cl)nc1` [imidacloprid] yielded an ATP [4] of −0.094.
`C=C1CCC=C(C)C(=O)CC2C(C)CC12` (stereo not drawn) [15-norcaryophyllen-3-one] gave an ATP [1] of 0.833.
With `COC(=O)C[C@H]1C2(C)CC34OC5(C)O[C@@]6([C@H](OC)C(OC(=O)C(C)C)[C@]7(C)C(/C(=C(/OC)C(C)C)C(=O)O[C@H]7c7ccoc7)[C@@]6(O5)[C@H](OC)[C@@]3(OC)C2OC(C)=O)[C@]14C` (stereo partly drawn) [chukrasin methyl ether] the ATP [3] was 0.533.
Molecule `CCn1cc(C(=O)O)c(=O)c2cnc(N3CCNCC3)nc21` [pipemidic acid] has an ATP [2] of 0.849.
`C[C@]12CC[C@@H]3c4ccc(O)cc4CC[C@H]3[C@@H]1CC[C@@H]2O` [estradiol] showed an ATP [4] of 0.137.
With `CN1C[C@H](C(=O)N[C@]2(C)O[C@@]3(O)[C@@H]4CCCN4C(=O)[C@H](Cc4ccccc4)N3C2=O)C[C@@H]2c3cccc4[nH]cc(c34)C[C@H]21` [dihydroergotamine] the ATP [2] was 0.585.
